# About 930 (0.24%) of roughly 390,000 compounds were called active. The shares of active, inactive and inconclusive entries below differ from those in the screen. Calls come from the whole dose curve; as a rule, active = well fitted activation curve with a large enough effect; inconclusive = small, poorly fitted or top-dose-only effect; inactive = no such curve, though single readings can be large or run the other way. Potencies beside an inconclusive call are fits to weak or partial responses and may not hold up.
# Assay: qHTS for Suppressors of FUS Proteinopathy: Primary screen using FUS-linked yeast assay; note: nearly all actives have a fitted effect of over 55% in size;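 for growth rescue (activation): plate controls were DMSO vehicle for no effect and reference control for full effect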
# Details: S. cerevisiae FUS-expressing, OD600, 24 h; Potency: growth rescue; growth rescue (activation): at 76.6 µM (top of the series)
# Method in brief: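 Read-out: OD at 600 nm after 24hr at 30C, reporting rescue of FUS-induced yeast toxicity. Cells at OD 0.005 in galactose (2%) minimal medium; compounds tested in a dilution series; CP55940 titration from 92uM final as control.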
# Potency is the fitted concentration of half-maximal effect; tags give direction and shape of the fitted curve.
SMILES,Potency,growth rescue (activation)
COc1ccc(N2CCN(C(=O)CSc3nc4cc(OC)c(OC)cc4cc3C#N)CC2)cc1,"inconclusive: 35.5 µM [activator, single point]",
CCOc1ccc(CN(C)C(=O)c2ccc(NC(=O)CC3SC(N4CCCC4)=NC3=O)cc2)cc1 (configuration not stated),"inconclusive: 3.55 µM [activator, full curve, poor fit]",
CCOc1ccc(-n2c(SCC(=O)Nc3ccc(OCc4ccccc4)cc3)nnc2-c2ccc(Cl)cc2)cc1,,inactive: 13.9%
O=C(NC1CCCCC1)c1ccc2c(c1)N(Cc1ccc(Cl)cc1)C(=O)c1ccccc1S2=O (configuration not stated),"inconclusive: 15.8 µM [activator, partial curve, poor fit]",
O=C(Nc1cccc(-n2cnnn2)c1)c1ccc(OC(F)(F)F)cc1,"inconclusive: 25.1 µM [activator, partial curve, poor fit]",
O=C(C1CCN(S(=O)(=O)c2cccc3cccnc23)CC1)N1CCN(c2ccc(Cl)cc2)CC1,active: 28.2 µM,
COc1ccc(N2CCN(C(=O)c3cc(S(=O)(=O)N4CCC(C)CC4)cn3C)CC2)cc1,"inconclusive: 28.2 µM [activator, single point]",
O=C(NNC(=S)Nc1cccc2ccccc12)c1cccc(Br)c1,"inconclusive: 50.1 µM [activator, single point]",
CCCN(CCC)C(=O)c1ccc2nc(-c3ccc(OC)c(OC)c3)c(-c3ccc(OC)c(OC)c3)nc2c1,"inconclusive: 25.1 µM [activator, partial curve, poor fit]",
CCCCOc1ccc(-c2c(C(=O)Nc3ccccc3)c(C)[nH]c(=S)c2C#N)cc1,"inconclusive: 56.2 µM [activator, partial curve, poor fit]",
COc1cccc(-c2c(-c3cc(OC)cc(OC)c3)n(C)c3ccc(-c4ccc5[nH]ccc5c4)cc23)c1,"inconclusive: 25.1 µM [activator, partial curve, poor fit]",
CCCCCCNC(=O)O[C@H]1Cn2c(=O)n(CCCCCC)c(=O)n2[C@@H]2CN(S(=O)(=O)c3ccc(C)cc3)C[C@]12O,"inconclusive: 12.6 µM [activator, partial curve]",
CCOc1ccc(OCC)c(NS(=O)(=O)c2cc(-c3onc(C)c3C)ccc2OC)c1,,inactive: 17%
COc1ccc(CN2C(=O)C(Cc3ccccc3)Nc3ncnc(N4CCN(c5ccccc5)CC4)c32)cc1 (configuration not stated),"inconclusive: 20 µM [activator, partial curve]",
CCC(C)NC(=O)C1CCCN(C(=O)NC2CCCCC2)C1 (configuration not stated),,inconclusive: 56.5% [activator]
CCC(C)(C)C1CCc2[nH]nc(C(=O)N/N=C(\C)c3ccco3)c2C1 (configuration not stated),"inconclusive: 44.7 µM [activator, single point]",
CCC(=O)N1CCc2cc(Br)cc(S(=O)(=O)CCC(=O)N(CC)Cc3ccccc3)c21,,inactive: 22.5%
Cc1ccc(NC(=O)CN2C(=O)C3(SCC(=O)N3c3ccc(F)c(F)c3)c3ccccc32)c(C)c1 (configuration not stated),"inconclusive: 39.8 µM [activator, single point]",
CC(C)(Oc1ccc(Cl)cc1)C(=O)Nc1nc2ccc(S(C)(=O)=O)cc2s1,"inconclusive: 50.1 µM [activator, single point]",

SMILES,Potency,growth rescue (activation)
COc1cc(C#Cc2c(-c3cncn3C)n(C)c3ccc(-c4cnc(N5CCOCC5)nc4)cc23)cc(OC)c1,"inconclusive: 12.6 µM [activator, partial curve, poor fit]",
CCN(CC)c1ccc(-c2nn3c(-c4ccccc4Cl)nnc3s2)cc1,active: 31.6 µM,
CCc1ccc(CNC(=O)C2Cc3cc(S(=O)(=O)N4CCCC4)ccc3N2C(C)=O)cc1 (configuration not stated),"inconclusive: 35.5 µM [activator, single point]",
O=C(CC1SC(=Nc2ccccc2)N(Cc2ccccn2)C1=O)Nc1cccc(Cl)c1 (configuration not stated),"inconclusive: 14.1 µM [activator, partial curve, poor fit]",
O=c1[nH][nH]c2c1[C@H](c1ccc(F)cc1)O[C@H](C1CCCCC1)C2,"inconclusive: 50.1 µM [activator, single point]",
CCOC(=O)N1CCC(NC(=O)c2ccc3c(c2)N=C(C)c2ccccc2S3)CC1,"inconclusive: 31.6 µM [activator, single point]",
CCOC(=O)CCCc1sc(N)nc1-c1[nH]c(=O)[nH]c1C,"inconclusive: 35.5 µM [activator, single point]",
C=CCOc1ccccc1CNc1cccc(F)c1,"inconclusive: 39.8 µM [activator, partial curve, poor fit]",
CCOc1cc(/C=N/Nc2nc(-c3cccs3)c(NC(C)=O)s2)ccc1O,"inconclusive: 44.7 µM [activator, single point]",
CCOc1ccc(Nc2c(S(=O)(=O)c3ccccc3)cnc3ccccc23)cc1,,inactive: 43.5%
CCc1ccc(/C=C2\SC(=S)N(CCCC(=O)N3CCN(C)CC3)C2=O)cc1,"inconclusive: 22.4 µM [activator, partial curve]",
COc1ccc(OC)c(-c2cc(C(=O)Nc3ccccc3C(N)=O)c3ccccc3n2)c1,"inconclusive: 28.2 µM [activator, single point]",
COC(=O)c1ccc(Cn2c(SCC(=O)N(C)c3ccccc3)nc3ccccc32)cc1,"inconclusive: 22.4 µM [activator, partial curve, poor fit]",
CCOc1cc(C(=O)Nc2ccc(S(=O)(=O)Nc3cc(OC)nc(OC)n3)cc2)cc(OCC)c1OCC,,inactive: 18.4%
CCOC(=O)N1CCN(C(=O)C[C@@H]2C[C@@]3(C(=O)OC)CCCCC=C3N(Cc3ccc(Cl)cc3Cl)C2=O)CC1,"inconclusive: 35.5 µM [activator, single point]",
COc1ccc(OC)c(CNc2sc3c(c2C(=O)Nc2cc(OC)ccc2OC)CCCC3)c1,"inconclusive: 39.8 µM [activator, single point]",
CC(=O)N1CCCc2cc(S(=O)(=O)N3CCCC(C(=O)Nc4cccc(Cl)c4C)C3)ccc21 (configuration not stated),,inactive: 16.5%
O=C(C[C@H]1C[C@H](C(=O)N2CCCCC2)[C@@]2(CCc3ccccc3)c3[nH]c4cc(-c5ccco5)ccc4c3CCN2C1=O)NCc1ccco1,"inconclusive: 28.2 µM [activator, partial curve, poor fit]",
O=C1CN(c2nnnn2-c2ccccc2)CCN1,,inconclusive: 87% [activator]

SMILES,Potency,growth rescue (activation)
C=CC[C@@H]1NN2C(=O)[C@@H](CCCC)[C@@H]3c4cc5ccccc5cc4C=NN3[C@@H]2c2cc3ccccc3cc21,,inactive: 27.1%
CC(C)Cn1cc(C(=O)N2CCN(c3cccc(Cl)c3)CC2)c2c3ccccc3n(C)c2c1=O,active: 35.5 µM,
O=C(Nc1ccccc1)N1CCC(C(=O)N2CCN(S(=O)(=O)c3cccc(F)c3)CC2)CC1,,inconclusive: 65% [activator]
Cc1ccc(C2C3=C(CCCC3=O)Nc3[nH]c(=S)[nH]c(=O)c32)cc1 (configuration not stated),"inconclusive: 20 µM [activator, partial curve, poor fit]",
Cc1ccc(-c2nnc(SCC(=O)NC3CC3)o2)cc1,"inconclusive: 11.2 µM [activator, partial curve]",
CCn1c(SCC(=O)c2ccc(-c3ccccc3)cc2)nnc1-c1ccc(C(C)(C)C)cc1,"inconclusive: 28.2 µM [activator, partial curve, poor fit]",
NC(=O)CNC(=O)[C@@H]1CC2(CC(c3cccc(Br)c3)=NO2)CN1C(=O)c1ccc(Br)cc1 (some centres not stated),"inconclusive: 28.2 µM [activator, single point]",
O=C(CCC1N=C2c3ccccc3N=C(SCC(=O)NCc3ccco3)N2C1=O)NCc1ccco1 (configuration not stated),"inconclusive: 28.2 µM [activator, partial curve]",
CCCN(CC(=O)Nc1ccccc1C)C(=O)CCl,,inactive: 30.1%
CCCn1nc(NS(C)(=O)=O)c2cc3cccc(C)c3nc21,"inconclusive: 31.6 µM [activator, partial curve, poor fit]",
CC(=O)c1c(N2CCOCC2)nc(=S)n(-c2cc(C)ccc2C)c1C,"inconclusive: 22.4 µM [activator, partial curve, poor fit]",
CC(C)C[C@H](NC(=O)c1nc[nH]c1C(=O)NCCNC(=O)OC(C)(C)C)C(=O)CNCCNC(=O)c1[nH]cnc1C(=O)N[C@@H](C)C(=O)OC(C)(C)C,"inconclusive: 12.6 µM [activator, partial curve, poor fit]",
COc1cccc(N2CCN(C(=O)c3cc4c(=O)n(Cc5ccco5)ccc4nc3C)CC2)c1,"inconclusive: 35.5 µM [activator, partial curve, poor fit]",
O=C(Cc1ccc(S(=O)(=O)N2CCOCC2)s1)Nc1ccc(N2CCOCC2)cc1,,inactive: 17.3%
COC(=O)[C@]12CCCCC=C1N(Cc1ccc(OC)cc1)C(=O)[C@@H]2CC(=O)NCc1ccccc1,"inconclusive: 25.1 µM [activator, partial curve, poor fit]",
CC1CN(C(=O)c2ccc(Oc3ccccc3)cc2)CC(C)O1 (configuration not stated),,inactive: 8.36%
CCN1CCN(S(=O)(=O)c2ccc(Cl)c(C(=O)N(C)Cc3ccc(C(C)(C)C)cc3)c2)CC1,"inconclusive: 31.6 µM [activator, single point]",
O=C(Nc1ccc(C(=O)N2CCC(O)(c3ccc(Cl)c(C(F)(F)F)c3)CC2)cc1)c1ccc(Br)o1,"inconclusive: 50.1 µM [activator, single point]",
CC1C(=O)N(Cc2cn(Cc3ccco3)nn2)CCS(=O)(=O)N1Cc1ccc(-c2ccc(F)nc2)cc1 (configuration not stated),"inconclusive: 28.2 µM [activator, single point]",
